Reference: the supplement of paper PMC8728848
The list shows a part of the results.

Legend:
Experiment in all cases: glycan array binding signal (z-score within array); higher = stronger binding
Conditions in all cases: glycan notation: IUPAC condensed, linker removed
[1] = biological target: GlcNAc(b1-3)Fuc
Outline: (§1)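 Negative Z-scores can be read as non-binding. The Z-score is calculated within each array and then averaged across arrays of one protein sequence at different concentrations or buffers and across linkers. Arrays, 3228 in all, were curated from the Consortium for Functional Glycomics database and kept only where the protein sequence was available.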

[2] = biological target: GlcNAc(b1-3)Gal
Outline: as §1

[3] = biological target: GlcNAc(b1-3)Gal(b1-3)GalNAc
Outline: as §1

[4] = biological target: GlcNAc(b1-3)Gal(b1-4)Glc
Outline: as §1

[5] = biological target: GlcNAc(b1-3)Gal(b1-4)GlcNAc
Outline: as §1

[6] = biological target: GlcNAc(b1-3)Gal(b1-4)GlcNAc(b1-2)Man(a1-3)[GlcNAc(b1-3)Gal(b1-4)GlcNAc(b1-2)Man(a1-6)]Man(b1-4)GlcNAc(b1-4)GlcNAc
Outline: as §1

[7] = biological target: GlcNAc(b1-3)Gal(b1-4)GlcNAc(b1-2)Man(a1-3)[GlcNAc(b1-3)Gal(b1-4)GlcNAc(b1-2)Man(a1-6)]Man(b1-4)GlcNAc(b1-4)[Fuc(a1-6)]GlcNAc
Outline: as §1

[8] = biological target: GlcNAc(b1-3)Gal(b1-4)GlcNAc(b1-2)[GlcNAc(b1-3)Gal(b1-4)GlcNAc(b1-6)]Man(a1-6)[GlcNAc(b1-3)Gal(b1-4)GlcNAc(b1-2)Man(a1-3)]Man(b1-4)GlcNAc(b1-4)GlcNAc
Outline: as §1

[9] = biological target: GlcNAc(b1-3)Gal(b1-4)GlcNAc(b1-3)Gal(b1-4)GlcNAc
Outline: as §1

[10] = biological target: GlcNAc(b1-3)Gal(b1-4)GlcNAc(b1-3)Gal(b1-4)GlcNAc(b1-2)Man(a1-3)[GlcNAc(b1-3)Gal(b1-4)GlcNAc(b1-3)Gal(b1-4)GlcNAc(b1-2)Man(a1-6)]Man(b1-4)GlcNAc(b1-4)GlcNAc
Outline: as §1

[11] = biological target: GlcNAc(b1-3)Gal(b1-4)GlcNAc(b1-3)Gal(b1-4)GlcNAc(b1-2)Man(a1-3)[GlcNAc(b1-3)Gal(b1-4)GlcNAc(b1-3)Gal(b1-4)GlcNAc(b1-2)Man(a1-6)]Man(b1-4)GlcNAc(b1-4)[Fuc(a1-6)]GlcNAc
Outline: as §1

[12] = biological target: GlcNAc(b1-3)Gal(b1-4)GlcNAc(b1-3)Gal(b1-4)GlcNAc(b1-2)[GlcNAc(b1-3)Gal(b1-4)GlcNAc(b1-3)Gal(b1-4)GlcNAc(b1-6)]Man(a1-6)[GlcNAc(b1-3)Gal(b1-4)GlcNAc(b1-3)Gal(b1-4)GlcNAc(b1-2)Man(a1-3)]Man(b1-4)GlcNAc(b1-4)[Fuc(a1-6)]GlcNAc
Outline: as §1

[13] = biological target: GlcNAc(b1-3)Gal(b1-4)GlcNAc(b1-3)Gal(b1-4)GlcNAc(b1-3)Gal(b1-4)GlcNAc(b1-2)Man(a1-3)[GlcNAc(b1-3)Gal(b1-4)GlcNAc(b1-3)Gal(b1-4)GlcNAc(b1-3)Gal(b1-4)GlcNAc(b1-2)Man(a1-6)]Man(b1-4)GlcNAc(b1-4)GlcNAc
Outline: as §1

[14] = biological target: GlcNAc(b1-3)Gal(b1-4)GlcNAc(b1-3)Gal(b1-4)GlcNAc(b1-3)Gal(b1-4)GlcNAc(b1-2)Man(a1-3)[GlcNAc(b1-3)Gal(b1-4)GlcNAc(b1-3)Gal(b1-4)GlcNAc(b1-3)Gal(b1-4)GlcNAc(b1-2)Man(a1-6)]Man(b1-4)GlcNAc(b1-4)[Fuc(a1-6)]GlcNAc
Outline: as §1

[15] = biological target: GlcNAc(b1-3)Gal(b1-4)GlcNAc(b1-3)Gal(b1-4)GlcNAc(b1-3)Gal(b1-4)GlcNAc(b1-2)[GlcNAc(b1-3)Gal(b1-4)GlcNAc(b1-3)Gal(b1-4)GlcNAc(b1-3)Gal(b1-4)GlcNAc(b1-6)]Man(a1-6)[GlcNAc(b1-3)Gal(b1-4)GlcNAc(b1-3)Gal(b1-4)GlcNAc(b1-3)Gal(b1-4)GlcNAc(b1-2)Man(a1-3)]Man(b1-4)GlcNAc(b1-4)[Fuc(a1-6)]GlcNAc
Outline: as §1

[16] = biological target: GlcNAc(b1-3)Gal(b1-4)GlcNAc(b1-3)Gal(b1-4)GlcNAc(b1-3)Gal(b1-4)GlcNAc(b1-3)Gal(b1-4)GlcNAc(b1-2)Man(a1-3)[GlcNAc(b1-3)Gal(b1-4)GlcNAc(b1-3)Gal(b1-4)GlcNAc(b1-3)Gal(b1-4)GlcNAc(b1-3)Gal(b1-4)GlcNAc(b1-2)Man(a1-6)]Man(b1-4)GlcNAc(b1-4)GlcNAc
Outline: as §1

[17] = biological target: GlcNAc(b1-3)Gal(b1-4)GlcNAc(b1-3)Gal(b1-4)GlcNAc(b1-3)Gal(b1-4)GlcNAc(b1-3)Gal(b1-4)GlcNAc(b1-2)Man(a1-3)[GlcNAc(b1-3)Gal(b1-4)GlcNAc(b1-3)Gal(b1-4)GlcNAc(b1-3)Gal(b1-4)GlcNAc(b1-3)Gal(b1-4)GlcNAc(b1-2)Man(a1-6)]Man(b1-4)GlcNAc(b1-4)[Fuc(a1-6)]GlcNAc
Outline: as §1

[18] = biological target: GlcNAc(b1-3)Gal(b1-4)GlcNAc(b1-3)Gal(b1-4)GlcNAc(b1-3)Gal(b1-4)GlcNAc(b1-3)Gal(b1-4)GlcNAc(b1-2)[GlcNAc(b1-3)Gal(b1-4)GlcNAc(b1-3)Gal(b1-4)GlcNAc(b1-3)Gal(b1-4)GlcNAc(b1-3)Gal(b1-4)GlcNAc(b1-6)]Man(a1-6)[GlcNAc(b1-3)Gal(b1-4)GlcNAc(b1-3)Gal(b1-4)GlcNAc(b1-3)Gal(b1-4)GlcNAc(b1-3)Gal(b1-4)GlcNAc(b1-2)Man(a1-3)]Man(b1-4)GlcNAc(b1-4)[Fuc(a1-6)]GlcNAc
Outline: as §1

[19] = biological target: GlcNAc(b1-3)Gal(b1-4)GlcNAc(b1-3)Gal(b1-4)GlcNAc(b1-3)GalNAc
Outline: as §1

[20] = biological target: GlcNAc(b1-3)Gal(b1-4)GlcNAc(b1-3)GalNAc
Outline: as §1

[21] = biological target: GlcNAc(b1-3)Gal(b1-4)GlcNAc(b1-3)[GlcNAc(b1-3)Gal(b1-4)GlcNAc(b1-3)]GalNAc
Outline: as §1

[22] = biological target: GlcNAc(b1-3)Gal(b1-4)GlcNAc(b1-6)[Gal(b1-3)]GalNAc
Outline: as §1

[23] = biological target: GlcNAc(b1-3)Gal(b1-4)GlcNAc(b1-6)[GlcNAc(b1-3)Gal(b1-3)]GalNAc
Outline: as §1

[24] = biological target: GlcNAc(b1-3)Gal(b1-4)GlcNAc(b1-6)[GlcNAc(b1-3)]Gal(b1-4)GlcNAc
Outline: as §1

[25] = biological target: GlcNAc(b1-3)GalNAc
Outline: as §1

[26] = biological target: GlcNAc(b1-3)Man
Outline: as §1

[27] = biological target: GlcNAc(b1-3)[GlcNAc(b1-4)][GlcNAc(b1-6)]GlcNAc
Outline: as §1

[28] = biological target: GlcNAc(b1-3)[GlcNAc(b1-6)]Gal(b1-4)GlcNAc
Outline: as §1

[29] = biological target: GlcNAc(b1-3)[GlcNAc(b1-6)]GalNAc
Outline: as §1

[30] = biological target: GlcNAc(b1-3)[GlcNAc(b1-6)]GlcNAc(b1-4)GlcNAc
Outline: as §1

[31] = biological target: GlcNAc(b1-4)Gal(b1-4)GlcNAc
Outline: as §1

[32] = biological target: GlcNAc(b1-4)GlcNAc
Outline: as §1

[33] = biological target: GlcNAc(b1-4)GlcNAc(b1-4)GlcNAc
Outline: as §1

[34] = biological target: GlcNAc(b1-4)GlcNAc(b1-4)GlcNAc(b1-4)GlcNAc(b1-4)GlcNAc
Outline: as §1

[35] = biological target: GlcNAc(b1-4)GlcNAc(b1-4)GlcNAc(b1-4)GlcNAc(b1-4)GlcNAc(b1-4)GlcNAc
Outline: as §1

[36] = biological target: GlcNAc(b1-4)[GlcNAc(b1-6)]GalNAc
Outline: as §1

[37] = biological target: GlcNAc(b1-6)Gal(b1-4)GlcNAc
Outline: as §1

[38] = biological target: GlcNAc(b1-6)GalNAc
Outline: as §1

B1: MAA (Maackia amurensis), P0DKL3 (protein)
chain: MATSNSKPTQVLLATFLTFFFLLLNNVNSSDELSFTINNFVPNEADLLFQGEASVSSTGVLQLTRVENGQPQKYSVGRALYAAPVRIWDNTTGSVASFSTSFTFVVKAPNPDITSDGLAFYLAPPDSQIPSGSVSKYLGLFNNSNSDSSNQIVAVELDTYFAHSYDPWDPNYRHIGIDVNGIESIKTVQWDWINGGVAFATITYLAPNKTLIASLVYPSNQTTFSVAASVDLKEILPEWVRVGFSAATGYPTEVETHDVLSWSFTSTLEANCDAATENNVHIARYTA
glycan array binding signal (z-score) [1]: -0.227
glycan array binding signal (z-score) [2]: -0.192
glycan array binding signal (z-score) [3]: -0.22
glycan array binding signal (z-score) [4]: -0.196
glycan array binding signal (z-score) [5]: -0.201
glycan array binding signal (z-score) [6]: -0.238
glycan array binding signal (z-score) [7]: -0.164
glycan array binding signal (z-score) [8]: 0.062
glycan array binding signal (z-score) [9]: -0.213
glycan array binding signal (z-score) [10]: 0.125
glycan array binding signal (z-score) [11]: -0.178
glycan array binding signal (z-score) [12]: 0.435
glycan array binding signal (z-score) [13]: -0.047
glycan array binding signal (z-score) [14]: -0.098
glycan array binding signal (z-score) [15]: 0.282
glycan array binding signal (z-score) [16]: 0.238
glycan array binding signal (z-score) [17]: -0.256
glycan array binding signal (z-score) [18]: -0.091
glycan array binding signal (z-score) [19]: -0.057
glycan array binding signal (z-score) [20]: -0.227
glycan array binding signal (z-score) [21]: -0.118
glycan array binding signal (z-score) [22]: -0.247
glycan array binding signal (z-score) [23]: -0.304
glycan array binding signal (z-score) [24]: 0.208
glycan array binding signal (z-score) [25]: -0.204
glycan array binding signal (z-score) [26]: -0.183
glycan array binding signal (z-score) [27]: -0.19
glycan array binding signal (z-score) [28]: -0.138
glycan array binding signal (z-score) [29]: -0.19
glycan array binding signal (z-score) [30]: -0.222
glycan array binding signal (z-score) [31]: -0.331
glycan array binding signal (z-score) [32]: -0.125
glycan array binding signal (z-score) [33]: 0.17
glycan array binding signal (z-score) [34]: 0.497
glycan array binding signal (z-score) [35]: 0.556
glycan array binding signal (z-score) [36]: -0.231
glycan array binding signal (z-score) [37]: -0.232
glycan array binding signal (z-score) [38]: -0.223
